This is an account of results in ChEMBL document CHEMBL4888484, “Replenishing the malaria drug discovery pipeline: Screening and hit evaluation of the MMV Hit Generation Library 1 (HGL1) against asexual blood stage Plasmodium falciparum ,using a nano luciferase reporter read-out” (2022).

SMILES strings stand for the structures. About 540 (0.36%) of roughly 150,000 compounds showed an effect of 50% or more. The list shows a part of the results.

The term % Inhibition denotes the drop in the measured response relative to a control, in per cent.

The experiment relates to Plasmodium falciparum. In words: Primary screen in NF54 nanoGlo assay, in single point, at 2uM, 72h; a lower Z score goes with more inhibition. To be noted: timepoint 72 hour. It is filed as functional, Erythrocyte.
Turning to `CCCCCN1CCN(Cc2cnc(NCC)nc2)[C@H]2CS(=O)(=O)C[C@H]21`, the “% Inhibition” value is recorded as -1% and the Z score is given as 0.09.
The corresponding values for `Cc1nc(C)c(C(=O)Nc2cccc(Oc3cccnn3)c2)o1` are -7% and 0.69.
Taken in the same sequence, the figures for `Cc1ccc(C)c(C(=O)N(Cc2ccncc2)C[C@@H]2CCC(=O)N2)c1` were -17% and 1.6.
The corresponding values for `Cc1ccccc1OCc1c(C(=O)N2CC[C@H](c3nc(C4CCOCC4)no3)C2)noc1C` are -3% and 0.45.
`O=C(Nc1nnc(-c2ccc(Br)cc2)o1)C(c1ccccc1)c1ccccc1`: the “% Inhibition” value came to 1% and the Z score was -0.18.
Take `Cc1ccccc1CN1CCCN(C(=O)c2cc3ccccc3c(=O)[nH]2)CC1`: the “% Inhibition” value is -5% and the Z score came to 0.7.
The corresponding values for `COc1ccccc1CNc1ccc2cc[nH]c2n1` are -12% and 1.37.
The corresponding values for `CCN=C(NCc1nc(C)c(C)s1)N1CC2CCCCC2C1` (centres undefined) are 1% and -0.12.
In the case of `CCc1cc2c(Oc3ccc(C)nc3)ncnc2s1`, the “% Inhibition” value is 28% and the Z score is on record as -3.71.
The corresponding values for `Cc1cc2c(cc1NC(=O)c1ccccc1F)N(C)S(=O)(=O)N2C` are -2% and 0.26.
The corresponding values for `CS(=O)(=O)N(CCN1CCOCC1)[C@H]1CCCN(Cc2cccc(Cl)c2)C1` are -6% and 0.78.
Taken in the same sequence, the figures for `COc1ccc(C(=O)N[C@H]2C[C@H]3CN(C(C)=O)[C@@H](C)C(=O)N3C2)c(C)c1` were -19% and 1.68.
On to `COc1cccc(CNc2nc(NCc3cccc(OC)c3)n(C(=O)COc3ccccc3)n2)c1`, for which the “% Inhibition” value is reported as 12% and the Z score is on record as -1.46.
With `O=C(NC1CCC(C(F)F)CC1)c1cc2n(n1)CCC2` (centres undefined), the “% Inhibition” value was -1% and the Z score worked out at 0.09.
The corresponding values for `CC(NC(=O)N1CCCC(C)(O)CC1)c1cccc(C#N)c1` (centres undefined) are -9% and 1.02.
Taken in the same sequence, the figures for `CCCc1ncncc1C(=O)N1C[C@@H]2[C@H]3CC[C@H](CC3)[C@@H]2C1` were -11% and 1.48.
Taken in the same sequence, the figures for `Cc1ccc2c(c1)CN(C(=O)Cc1cncnc1)C(C)(C)C2` were -9% and 1.19.
For `COc1cc(NC(=O)N2CCC(Oc3ccc(Cl)cn3)CC2)cc(OC)c1`, the “% Inhibition” value was -17% and the Z score is given as 3.22.
Taken in the same sequence, the figures for `CC(C)CN(CC(C)(C)C)C(=O)NC[C@H]1CN(C)CCN1C` were 3% and -0.47.
On to `Cc1cccc(C(=O)N2[C@H](C(=O)NCCN(C)C)COC23CCN(C(=O)c2ccccc2C)CC3)c1`, for which the “% Inhibition” value is reported as -2% and the Z score came to 0.4.
The corresponding values for `CC(C)CCS(=O)(=O)Cc1ncc(Cl)cc1Cl` are -16% and 1.4.
Taken in the same sequence, the figures for `Cc1n[nH]c([C@@H]2CN(c3ccc4nnc(C(C)(C)C)n4n3)CCO2)n1` were 5% and -0.57.
Taken in the same sequence, the figures for `O=C(NCC(F)F)C1CC12CCc1cc(Br)ccc12` (centres undefined) were 4% and -0.56.
Take `O=C(C[C@H]1CCCN(c2cn[nH]c(=O)c2)C1)N1CCN(c2ccccc2)CC1`: the “% Inhibition” value was -8% and the Z score came out at 1.03.
Taken in the same sequence, the figures for `Cc1cnc(NC(=O)CCc2cnn(C)c2)s1` were 4% and -0.69.
Taken in the same sequence, the figures for `CC(C)C(=O)NCc1nccc(N2CCCCC2)n1` were -6% and 0.93.
The corresponding values for `CC1(C)CCc2ncn(Cc3cccc(C(=O)O)c3)c(=O)c2C1` are -9% and 0.91.
Turning to `CC(C)Nc1ncc(C(=O)N2CCC3(CCO3)CC2)cn1`, the “% Inhibition” value is given as -7% and the Z score worked out at 1.33.
Taken in the same sequence, the figures for `Cc1ncsc1-c1ccc(CN)cc1` were -10% and 1.44.
Consider `c1nc(-c2nc(C3CCCC3)no2)c(C2CC2)o1`, for which the “% Inhibition” value is listed as -6% and the Z score was 0.9.
Consider `CCOC(=O)c1cnn(-c2nccs2)c1N`, for which the “% Inhibition” value is -6% and the Z score was determined as 0.98.
Taken in the same sequence, the figures for `CN(C)C[C@H]1COC2(CCCC2)CN1S(=O)(=O)CCc1ccccc1F` were 5% and -0.96.
The corresponding values for `CC(C)(O)CNC[C@](C)(O)c1ccc(Br)cc1F` are 7% and -1.26.
Taken in the same sequence, the figures for `Cc1ccc(NC(=O)N2CC[S@@+]([O-])C(C)(C)C2)cc1OC(F)F` were 28% and -3.8.
With `CCc1cnc(C)nc1N[C@H](C(N)=O)[C@@H](C)CC`, the “% Inhibition” value stood at 3% and the Z score is on record as -0.44.
On to `COc1cc(=O)n2c(c1-c1nc(-c3ccccc3Cl)no1)CCC2`, for which the “% Inhibition” value stood at 8% and the Z score is -0.91.
For the compound `Cc1cccc(C)c1NC(=O)c1cc(S(=O)(=O)N2CCN(Cc3ccc4c(c3)OCO4)CC2)ccc1F`, the “% Inhibition” value is given as -10% and the Z score is recorded as 1.39.
The corresponding values for `Cc1noc(C)c1C(=O)N[C@H]1CC[C@H](Oc2ncc(F)cn2)CC1` are -11% and 1.9.
Consider `CCOC(=O)c1csc(N(C)C(=O)Cc2ccccc2Cl)n1`, for which the “% Inhibition” value is given as -2% and the Z score came to 0.35.
For the compound `NC(=O)c1cc(OC2CCN(Cc3ccccn3)CC2)ccn1`, the “% Inhibition” value is listed as -15% and the Z score is 1.97.
Taken in the same sequence, the figures for `O=C(Nc1cc(N2CCOC2=O)ccc1F)[C@@H]1CCCN1C(=O)c1cc(Cl)ccc1Cl` were -19% and 1.89.
The corresponding values for `CN(C1CCCC1)C1CCN(C(=O)Nc2ccc(Cl)cc2)CC1` are 0% and 0.06.
